Among all 310,000 compounds or so, about 2,200 (0.71%) showed an effect of 50% or more. The effect is printed as a negative number. The list shows a part of the results.
These molecules were tested against human ether-à-go-go-related gene (hERG) potassium channel (human, UniProt Q12809) (assay: primary screen, population patch clamp on CHO cells stably expressing hERG).
Chain of human ether-à-go-go-related gene (hERG) potassium channel (Q12809 whole entry, looked up): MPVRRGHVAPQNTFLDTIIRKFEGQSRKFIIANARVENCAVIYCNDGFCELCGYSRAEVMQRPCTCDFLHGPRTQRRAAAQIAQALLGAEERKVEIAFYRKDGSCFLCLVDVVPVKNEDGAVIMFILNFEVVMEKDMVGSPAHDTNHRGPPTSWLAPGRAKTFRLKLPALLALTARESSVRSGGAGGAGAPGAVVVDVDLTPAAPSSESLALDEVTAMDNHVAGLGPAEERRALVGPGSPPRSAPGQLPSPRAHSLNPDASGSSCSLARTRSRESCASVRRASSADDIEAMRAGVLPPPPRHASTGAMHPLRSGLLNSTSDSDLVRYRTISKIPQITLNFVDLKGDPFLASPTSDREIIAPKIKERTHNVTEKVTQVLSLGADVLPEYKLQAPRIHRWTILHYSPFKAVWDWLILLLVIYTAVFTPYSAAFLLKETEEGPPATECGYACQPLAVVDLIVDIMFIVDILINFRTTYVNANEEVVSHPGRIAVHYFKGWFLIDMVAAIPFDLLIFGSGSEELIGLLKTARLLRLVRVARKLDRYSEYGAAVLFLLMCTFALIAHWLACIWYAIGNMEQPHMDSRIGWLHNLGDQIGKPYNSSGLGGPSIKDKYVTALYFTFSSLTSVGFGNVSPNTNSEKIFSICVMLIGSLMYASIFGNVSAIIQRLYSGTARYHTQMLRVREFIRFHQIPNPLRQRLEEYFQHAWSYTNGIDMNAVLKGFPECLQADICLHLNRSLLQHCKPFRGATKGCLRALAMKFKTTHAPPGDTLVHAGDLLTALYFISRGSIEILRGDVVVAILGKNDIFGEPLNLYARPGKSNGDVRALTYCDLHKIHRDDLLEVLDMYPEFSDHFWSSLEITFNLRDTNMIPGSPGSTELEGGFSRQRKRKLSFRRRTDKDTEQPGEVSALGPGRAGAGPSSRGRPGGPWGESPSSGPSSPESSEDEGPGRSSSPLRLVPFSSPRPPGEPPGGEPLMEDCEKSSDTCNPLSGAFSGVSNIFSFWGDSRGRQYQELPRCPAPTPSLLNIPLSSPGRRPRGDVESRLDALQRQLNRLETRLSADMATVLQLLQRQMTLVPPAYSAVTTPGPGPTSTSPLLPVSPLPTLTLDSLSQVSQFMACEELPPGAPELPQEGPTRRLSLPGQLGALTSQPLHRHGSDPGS

Row | Compound | hERG current change (%, negative = inhibition) at 1uM [%]
1 | OCCCCNc1cccc2ccccc12 | 8.22
2 | CC(C)/C(=N\NS(=O)(=O)c1ccc(Br)cc1)c1cccs1 | 2.82
3 | COC(=O)COc1ccc(S(=O)(=O)N2CCCCCC2)cc1 | 14.5
4 | Cn1nccc1NC(=O)Nc1cccc(Br)c1 | 11.1
5 | CC(C)(C)CC(C)(C)NC(=O)Nc1cccc([N+](=O)[O-])c1 | 9.93
6 | Cn1c(CN2CCCCC2)nc2cc(NC(=O)c3ccc(F)cc3)ccc21 | -16
7 | CCn1c(CN2CCN(CCO)CC2)nc2ccccc21 | 3.53
8 | Cc1cc(/C=C2\SC(=S)NC2=O)c(C)[nH]1 | 12.2
9 | CCOC(=O)CN1C(=O)S/C(=C/C=C/c2ccc(N(C)C)cc2)C1=O | 13.9
10 | O=C(Cc1ccccc1)Nc1nnc(SCC(=O)NC2CCCC2)s1 | 2.16
11 | N#CCCn1nc(-c2ccccc2)cc1-n1c(C(F)(F)F)nc2ccccc21 | 9.33
12 | Cc1c(C(N)=O)sc2ncn(CC(=O)N(C)C3CCCCC3)c(=O)c12 | 9.31
13 | CC(Oc1ccc2ccc(=O)oc2c1)C(=O)NC1CCN(Cc2ccccc2)CC1 (centres unmarked) | -38.3
14 | O=C(CN(CC1CCCO1)C(=O)CCC(=O)Nc1nccs1)NCc1ccc2c(c1)OCO2 (centres unmarked) | 14.6
15 | C=C1C[C@H]2[C@@H]3CCc4cc(OC)ccc4[C@H]3CC[C@]12C | 10.7
16 | O=C(NCC1COc2ccccc2O1)C1C2C=CC3(CN(Cc4cccs4)C(=O)C13)O2 (centres unmarked) | 2.05
17 | Cc1nc(SCC(=O)NC(=O)NCc2ccco2)nc(C)c1C | 8.09
18 | COc1ccc(-c2csc(-n3cccn3)n2)cc1 | 18
19 | CCOC(=O)c1c(S(=O)(=O)NCCCc2ccco2)c(C)n(C)c1C | 10.1
20 | COC(=O)c1ccccc1NC(=O)Cn1cnc2c1c(=O)n(C)c(=O)n2C | 11
21 | CC(C)(C)OC(=O)N1CCC[C@H]1C(=O)Nc1ccc(C#N)cc1 | 4.26
22 | Cc1ccc(C(=O)NCCNS(=O)(=O)c2ccccc2[N+](=O)[O-])cc1 | 11.6
23 | CCOC(=O)C1=C(COC(=O)COc2cccc(C)c2C)NC(=O)NC1C (centres unmarked) | -1.08

Row | Compound | hERG current change (%, negative = inhibition) at 1uM [%]
24 | O=C(O)c1cccnc1SCc1cccc(Cl)c1 | 5.06
25 | CCN(CC)C(=O)Cn1cc(C(=O)C(=O)NCCCn2ccnc2)c2ccccc21 | 10.9
26 | COc1ccc(Br)cc1/C=N/n1c(-c2ccccc2)n[nH]c1=S | 16.6
27 | Cc1ccc(Cl)c(OCC(=O)NCc2ccco2)c1 | 6.6
28 | Cc1ccc(CSCC(=O)NCc2ccc3c(c2)OCO3)cc1 | 5.01
29 | Cc1csc2nc(CSc3nncn3-c3ccccc3)c(Br)n12 | 5.2
30 | CC(=O)c1cccc(NC(=O)c2oc(C)nc2C)c1 | -2.48
31 | COc1ccc(/C=C/C(=O)Nc2cc(S(=O)(=O)N3CCOCC3)ccc2N2CCCC2)cc1OC | 4.57
32 | CN(C)CCNC(=O)c1ccc(-c2nn(C)c(=O)c3ccccc23)cc1 | 0.154
33 | COc1cccc(NC(=O)CCC2CCN(C(=O)c3ccc(C(C)=O)s3)CC2)c1 | -4.16
34 | O=C(O)C1CCN(c2ccc(S(=O)(=O)N3CCC(C(=O)O)CC3)cc2[N+](=O)[O-])CC1 | 9.68
35 | Cc1cn(S(=O)(=O)c2ccccc2[N+](=O)[O-])cn1 | 18.2
36 | COc1ccc(-n2nc(C(=O)NCC(=O)NC3CCCCCC3)c3ccccc3c2=O)c(OC)c1 | 11.5
37 | N#CCCn1cc(C(=O)N2CCCCC2)c(-c2cccc([N+](=O)[O-])c2)n1 | 15.5
38 | CC(C)(C)c1ccc(OCCCn2ccnc2)cc1 | 13
39 | OCC[C@@H]1C[C@H](O)[C@@H](O)[C@]2(CCCc3ccccc3O2)O1 | 24.1
40 | CC(Sc1nc2ccccc2n1C)C(=O)NC(c1ccccc1)c1ccccc1 (centres unmarked) | 8.92
41 | CC(=O)Oc1cccc(-c2nc3ccccc3c(=O)o2)c1 | 10.6
42 | CSc1ccccc1NC(=O)Nc1cccc(F)c1 | 5.9
43 | O=C(CSc1ncc(-c2ccccc2)[nH]1)Nc1ccccc1 | -0.253
44 | CCOCc1nnc(NC(=O)c2cccs2)s1 | 6.37
45 | COc1cc(CNc2ccc(C(=O)O)cc2)cc(Br)c1OCC(=O)NC(C)(C)C | 9.4
46 | CCOC(=O)C1C(=O)NC(SC)=C(C#N)C1c1ccccc1F (centres unmarked) | -0.132

Row | Compound | hERG current change (%, negative = inhibition) at 1uM [%]
47 | CC(C)(CO)NC(=S)NCc1ccco1 | 5.79
48 | CC(=O)Nc1ccccc1C(=O)C(=O)Nc1cccc(C(=O)N2CC(C)CC(C)C2)c1 (centres unmarked) | 2.9
49 | CCOC(=O)c1oc2cc(O)cc(C)c2c(=O)c1-c1cscn1 | -6.8
50 | O=C(/C=C/c1cccs1)N1CCN(c2ccc(F)cc2)CC1 | 4.04
51 | CC1CCCCN1S(=O)(=O)c1cn(C)c(=O)n(C)c1=O (centres unmarked) | -0.331
52 | Cc1ccc(S(=O)(=O)NCC(=O)OC(C)C(=O)NC(=O)NC2CCCCC2)cc1C (centres unmarked) | 9.6
53 | O=C(NNC(=O)c1cccs1)c1ccc([N+](=O)[O-])cc1 | 12.9
54 | Cl.N=C(N)c1ccccc1.O | 17.6
55 | O=C(COC(=O)c1ccc(S(=O)(=O)N2CCCC2)cc1)Nc1cccc(Br)c1 | -12
56 | O=C(CSc1nnc(-c2ccco2)o1)Nc1c(F)cccc1F | 0.413
57 | O=C(Nc1cccc(S(=O)(=O)Nc2ccccc2Cl)c1)c1ccc(N2CCCC2)c([N+](=O)[O-])c1 | 13.1
58 | CN(Cc1cnn(C)c1)Cc1nc(COc2ccccc2)no1 | 19.3
59 | CCOC(=O)C1C(c2ccccc2Cl)NC(=O)N(C)C1(O)C(F)(F)F (centres unmarked) | 10.1
60 | Cc1cc(C)c2[nH]c(=O)c(CN(Cc3ccccc3)C(=S)NCCCN(C)C)cc2c1 | -17.7
61 | N#Cc1c(N)oc(-c2cccs2)c1-c1cccs1 | 6.43
62 | CCOC(=O)N1CCN(Cc2nc3cc([N+](=O)[O-])ccc3n2C)CC1 | 5.08
63 | N=C1/C(=C\c2ccc(SCc3ccccc3)o2)C(=O)N=C2SC(CC(=O)N3CCOCC3)=NN12 | 2.34
64 | C=CCNC(=O)C1=NOC(CNC(=O)c2c(-c3ccccc3Cl)noc2C)C1 (centres unmarked) | 18.3
65 | CC(C)C[NH+]=c1cc(-c2ccccc2)oc2ccc(Cl)cc12.F[B-](F)(F)F | -81.1
66 | C/C(=N\NC(=O)c1ccccc1NC(=O)c1ccc(Cl)cc1)c1ccncc1 | 10.3
67 | CCOc1ccc(NC(=O)CNS(=O)(=O)c2c(C)cc(C)cc2C)cc1 | 16.1
68 | COc1cc(C(=O)N2C[C@H]3CC[C@H]2C3)ccc1OC1CCN(C(C)=O)CC1 | 10.5
69 | COc1ccc(NC(=O)CSc2nc(N)c(NC(=O)c3ccccc3F)c(=O)[nH]2)cc1 | 5.08

Row | Compound | hERG current change (%, negative = inhibition) at 1uM [%]
70 | O=C(COC(=O)c1cnc(Cl)c(Cl)c1)NCc1cccs1 | 6.12
71 | CCOc1ccc(N2CC(C(=O)NCc3nnnn3-c3ccc(C)c(C)c3)CC2=O)cc1 (centres unmarked) | 10.2
72 | O=C(Nc1ccc(-c2nc3ccccc3[nH]2)cc1)c1ccc2c(c1)OCO2 | 9.1
73 | Cc1cc(Cl)ccc1OCC(=O)Nc1ccccc1N1CCOCC1 | 16.3
74 | O=C(COC(=O)C1=COCCO1)Nc1ccc2c(c1)OCO2 | 8.46
75 | CCOC(=O)c1ccc(S(=O)(=O)NCC[NH+]2CCOCC2)cc1.[Cl-] | 27.2
76 | CNc1cccc2c1C(=O)c1ccccc1C2=O | 5.62
77 | NS(=O)(=O)c1ccc(NC(=S)Nc2ccc(S(=O)(=O)N3CCCC3)cc2)cc1 | 13.3
78 | O=C(CSc1nncs1)Nc1ccc2[nH]c(=O)[nH]c2c1 | 6.04
79 | CCC1(C)SC(N)=NN1C(C)=O (centres unmarked) | 9.52
80 | COC(=O)c1sc(NC(=O)c2ccc(OC)cc2OC)nc1C | 14.8
81 | O=C(CSc1nnc(-c2ccncc2)o1)Nc1ccccc1Cl | 12.8
82 | CN1CCN(c2ccc(S(=O)(=O)N3CCCCC3)cc2NC(=O)Cc2ccccc2F)CC1 | 2.47
83 | Cc1cccc(NC(=S)N/N=C/c2ccc(Cl)c([N+](=O)[O-])c2)c1 | 5.81
84 | CC(OC(=O)c1n[nH]c2ccccc12)C(=O)NC1CCCCC1C (centres unmarked) | 5.39
85 | CCOC(=O)c1sc(NC(NC(=O)c2ccco2)(C(=O)OC)C(F)(F)F)nc1C (centres unmarked) | 10.2
86 | COc1ccc(S(=O)(=O)NNC(=O)C2COc3ccccc3O2)cc1[N+](=O)[O-] (centres unmarked) | 15
87 | COc1ccc(Cc2nnc(SCC(=O)N(C)CC(=O)Nc3ccc(C)cc3)o2)cc1 | 4.06
88 | S=c1sc2c(N3CCN(Cc4ccccc4)CC3)ncnc2n1-c1ccccc1 | -5.55
89 | C=CCN(CC=C)CCOc1ccc(C)cc1[N+](=O)[O-].O=C(O)C(=O)O | -62.5

From paper PMC4336329 (PLoS ONE, 2015)
